Experimental data taken from patent publication US8877771B2, “Treatment of solid tumors with rapamycin derivatives” (Novartis Pharmaceuticals Corporation, priority 2001, dated 2014).
Like-named read-outs stand apart in the source and are kept apart here.

Columns and labels:
[1] = system: CA20948 rat pancreatic tumors; experiment: Activity in CA20948 rat pancreatic tumors; format: in vivo, male Lewis rats
Experimental: (§1) • Fragments of A549 tumors (approx. 25 mg; derived from Cell line CCL 185, ATCC, Rockville Md., USA) are transplanted subcutaneously into the left flank of BALB/c nude mice. Treatment is started on day 7 or day 12 following tumor transplantation. The compound to be tested is administered p.o. once per day from day 7/12 to day 38/55, respectively. […] B.2 Activity in KB-31 Human Epidermoid Tumor Xenografts • Fragments of KB-31 tumors (approx. 25 mg; derived from the cell lines obtained from Roswell Park Memorial Institute Buffalo, N.Y., USA) are transplanted subcutaneously into the left flank of BALB/c nude mice. Treatment is started on day 7 or on day 10 following tumor transplantation. The compound to be tested is administered p.o. once per day from day 7/10 to day 25/35, respectively. […] B.3 Activity in CA20948 Rat Pancreatic Tumors • Tumors are established in male Lewis rats by subcutaneous injection of CA20948 tumor cell suspension derived from donor rats into the left flank. Treatment is started on day 4 post inoculation. The compound to be tested is administered p.o. once per day (6 days a week) from day 4 to day 9-15 post inoculation. Antitumor activity is expressed as TIC % as indicated above.

[2] = 4-week toxicity study in rats; format: in vivo
Source text: (§2) Rapamycin or derivatives thereof are well tolerated at dosages required for use in accordance with the present invention.

[3] = system: KB-31 human epidermoid tumor xenografts; experiment: Activity in KB-31 human epidermoid tumor xenografts; format: in vivo, BALB/c nude mice; details: 2.5 mg/kg/day p.o.
Experimental: as §1

[4] = system: human NCI H-596 lung tumor model; experiment: Human NCI H-596 lung tumor model; format: in vivo; details: daily 2.5 mg/kg
HCT116 line = experiment: Antiproliferative activity in combination with other agents (methylene blue staining); details: Compound A alone
[5] = system: normal human dermal fibroblast (NHDF); experiment: bFGF-stimulated NHDF proliferation; details: same concentration range as HUVEC assay
[6] = system: human umbilical vein endothelial cells (HUVECs); experiment: In vitro antiproliferative activity against HUVECs
[7] = 4-week toxicity study in monkeys; format: in vivo
Source text: as §2

[8] = system: human KB-31 epidermoid tumors; experiment: Combination with doxorubicin in KB-31 tumors; details: 21 days; Compound A 2.5 mg/kg p.o. once per day alone
[9] = system: orthotopic mouse B16/BL6 melanoma tumor model; experiment: Orthotopic mouse B16/BL6 melanoma tumor model; format: in vivo; details: 5 mg/kg daily
KB-31 line = experiment: Antiproliferative activity in combination with other agents (methylene blue staining); details: Compound A alone
[10] = system: multi-drug resistant (MDR) human KB-8511 epidermoid tumor model; experiment: Multi-drug resistant human KB-8511 epidermoid tumor model; format: in vivo; details: 2.5 mg/kg daily
[11] = system: human MEXF 989 melanoma tumor model; experiment: Human MEXF 989 melanoma tumor model; format: in vivo; details: daily 5 mg/kg
[12] = system: A549 human lung tumor xenografts; experiment: Activity in A549 human lung tumor xenografts; format: in vivo, BALB/c nude mice
Experimental: as §1

[13] = system: B16/BL6 primary tumor and cervical lymph node metastases; experiment: Combination with an antiangiogenic agent (B16/BL6); format: in vivo, C57BL/6 mice
[14] = daily, antiangiogenic agent 100 mg/kg p.o., Compound A 1 mg/kg p.o., alone or combined

CO[C@H]1C[C@@H]2CC[C@@H](C)[C@@](O)(O2)C(=O)C(=O)N2CCCC[C@H]2C(=O)O[C@H]([C@H](C)C[C@@H]2CC[C@@H](OCCO)[C@H](OC)C2)CC(=O)[C@H](C)/C=C(\C)[C@@H](O)[C@@H](OC)C(=O)[C@H](C)C[C@H](C)/C=C/C=C/C=C/1C [Compound A, 40-O-(2-hydroxyethyl)-rapamycin]
final T/C ([1]; 2.5 mg/kg p.o. daily (6 days a week)): 23%
rate of CA20948 pancreatic tumor growth ([1]; compared to vehicle controls): significantly and consistently decreases
final T/C ([1]; intermittent, 5 mg/kg twice per week): 32%
NTEL [2]: 0.5 mg/kg/day
final T/C [3]: 25%
final T/C [4]: 18%
IC50 (HCT116 line): μM range
effect on bFGF-stimulated NHDF proliferation [5]: no significant effects
IC50 ([6]; read-out: IC50, FBS-stimulated proliferation, FBS-stimulated): > 10 nM
IC50 ([6]; read-out: IC50, VEGF-stimulated proliferation, VEGF-stimulated): 0.12 ± 0.022 nM
IC50 ([6]; read-out: IC50, bFGF-stimulated proliferation, bFGF-stimulated): 0.841 ± 0.396 nM
NTEL [7]: 1.5 mg/kg/day
T/C [8]: 32%
final T/C (cervical lymph node metastases) [9]: 36%
final T/C (primary tumor) [9]: 20%
IC50 (KB-31 line): μM range
final T/C [10]: 28%
final T/C [11]: 9%
final T/C ([12]; 0.1 mg/kg p.o. once per day): 43%
final T/C ([12]; 0.5 mg/kg p.o. once per day): 16%
% regressions (transient) ([12]; 0.5 mg/kg p.o. once per day, on day 17): 38%
% regressions (persisting) ([12]; 2.5 mg/kg p.o. once per day): 41%

Clc1ccc(Nc2nnc(Cc3ccncc3)c3ccccc23)cc1 [antiangiogenic agent]
cervical lymph node weights (regional metastases), T/C [13, 14]: 34%
size of the primary tumor, final T/C [13, 14]: 65%
treated/controls ratio, metastases (interaction analysis) ([13]; metastases): 0.337
treated/controls ratio, primary tumors (interaction analysis) ([13]; primary tumors): 0.66
